# Out of some 420,000 compounds screened, about 50,000 (12%) were called active. The shares of active, inactive and inconclusive entries below differ from those in the screen. The call rests on the fitted dose curve; in most records, active means well fitted inhibition curve with a large enough effect; inconclusive means small, poorly fitted or top-dose-only effect; inactive means flat fitted curve, though single readings scatter. No potency is given beside an inconclusive call; the fits are too rough.
# Assay: qHTS for Inhibitors of human tyrosyl-DNA phosphodiesterase 1 (TDP1): qHTS in cells in presence of CPT; further: nearly all actives have a fitted effect of over 55% in size
# Conditions: chicken DT40 Tdp1-/-;hTDP1 cells + 20 nM CPT, ATP luminescence, 48 h; activity change, negative = growth inhibition: at 46.2 µM (top of the series) unless noted
# Summary of the method: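 Chicken DT40 Tdp1-/- cells stably complemented with human TDP1 were seeded at 400 cells/well in medium containing 20 nM camptothecin, exposed to pin-transferred compounds, and grown at 37 °C for at least 48 hr. Viability was read as ATP luminescence.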
# On the % scale 0 is the no-effect control and ±100 the full control effect; potency means the concentration at half of the fitted maximal effect; tags describe the fitted curve by direction and shape.
SMILES,Potency,"activity change, negative = growth inhibition"
CCC1(c2ccccc2)NC(=O)N(CC(=O)Nc2cc(S(=O)(=O)N3CCCCCC3)ccc2OC)C1=O (centres undefined),active: 16.4 µM,–
Cc1cc(Nc2ccccc2)c2c([N+](=O)[O-])cc(C)c(C)c2n1,active: 9.2 µM,–
Cc1ccc(N/C=C/C(=O)c2sc(-c3ccccc3)nc2C)cc1,"inconclusive [inhibitor, single point]",–
Cn1nc(C(=O)NCc2ccccc2Cl)c2c1-c1ccccc1SC2,"inconclusive [inhibitor, single point]",–
COc1ccc(CN(C)C(=O)c2ccccc2OCc2c(C)noc2C)cc1OC,"inconclusive [inhibitor, single point]",–
COc1ccccc1C(=O)N1CCN(C(=O)c2oc3c(C)c(C)ccc3c2C)CC1,"inconclusive [inhibitor, single point]",–
S=C(NCc1ccc(Cl)cc1)Nc1ccncc1,active: 8.2 µM,–
CCOc1ccccc1NC(=S)Nc1ccccc1F,–,inactive: -7.22%
O=C(CN1C(=O)NC(CCc2ccccc2)C1=O)N1CCCCCC1 (centres undefined),–,inactive: -1.24%
COc1ccccc1CNC(=O)CSc1nc(C)cs1,–,inconclusive: -30.2% [inhibitor]
CC(=O)N1c2ccccc2N=C(c2ccc(C(F)(F)F)cc2)C1C(=O)NC1CCCC1 (centres undefined),"inconclusive [inhibitor, single point]",–
O=C(COC(=O)C1C2CC3OC(=O)C1C3C2)Nc1ccc(F)cc1 (centres undefined),–,inactive: -17.1%
CC1CCCCC1NC(=O)c1ccc(S(=O)(=O)NNC(=O)c2ccncc2)cc1 (centres undefined),"inconclusive [inhibitor, single point]",–
N#Cc1cc(-c2ccccc2)nc(NN)n1,"inconclusive [inhibitor, single point]",–
O=C1NC[C@@H](Cc2cccc3ccccc23)N(CCc2cc(C(F)(F)F)cc(C(F)(F)F)c2)C1=O,–,inactive: -4.63%
Cc1ccc(-c2nn(-c3ccccc3)cc2CSC(=N)N)cc1,"inconclusive [inhibitor, single point]",–
CCOc1ccc(NC(=O)N2CCN(C(=O)c3nsc4ccccc34)CC2)cc1,"inconclusive [inhibitor, partial curve, poor fit]",–
COc1cc(OC)c2c(C)c(CC(=O)NCc3ccccc3OC)c(=O)oc2c1,"inconclusive [inhibitor, partial curve]",–
CCOc1ccc(NC(=O)CSc2nc3cc(C(=O)NCC4CCCO4)ccc3c(=O)n2CC2CCCO2)cc1 (centres undefined),"inconclusive [inhibitor, partial curve]",–
COc1ccccc1C1(CC(=O)N2CCCCC2)CCOC(C(C)C)C1 (centres undefined),active: 23.1 µM,–
Cc1cccc(C)c1NC(=O)CN1CCN(C/C=C/c2ccccc2)CC1,"inconclusive [inhibitor, single point]",–
Cc1nc2ccccc2n1CC(O)COc1ccccc1Cl (centres undefined),active: 18.4 µM,–
CC1(C(=O)NCc2ccccc2)Cc2c(-c3ccc4c(c3)OCO4)ccnc2O1 (centres undefined),active: 0.651 µM,–
COc1ccc(CN=C(Nc2ccccc2)SC2CC(=O)NC2=O)cc1 (centres undefined),–,inactive: 2.56%
Cc1cccc(CN2[C@H](COC(=O)Nc3ccccc3)C=CS2(=O)=O)c1,"inconclusive [inhibitor, single point]",–

SMILES,Potency,"activity change, negative = growth inhibition"
CCOc1ccc(NC(=O)CC(NCc2ccccn2)C(=O)O)cc1 (centres undefined),"inconclusive [inhibitor, single point]",–
Cc1occc1-c1nnc(SCC(=O)NC2CCC(C)CC2)o1 (centres undefined),–,inactive: -19.7%
CC1(C(=O)NCc2ccccc2)CN(S(C)(=O)=O)CC(=O)N1CCc1ccc(O)cc1 (centres undefined),–,inactive: 10.1%
N#CC1=C(N)N2C(=C(C#N)C1c1ccc(Br)cc1)Nc1ccccc12 (centres undefined),active: 6.51 µM,–
O=S(=O)(Nc1cccc(-c2ccc(N3CCOCC3)nn2)c1)c1ccc(F)c(C(F)(F)F)c1,"inconclusive [inhibitor, partial curve]",–
OC(CN1CCN(c2ccccc2Cl)CC1)c1ccccc1 (centres undefined),–,inactive: -2.75%
Cc1cc(C)n(C(=O)c2ccc(Cn3nc(C)c(Br)c3C)o2)n1,–,inactive: -9.76%
Cc1ccc(C(C(=O)NC2CCCCC2)N(C(=O)CCCC(=O)Nc2ccccn2)c2ccc3c(c2)OCCO3)cc1 (centres undefined),–,inactive: -24.1%
Cc1ccc(/C=N/NC(=S)Nc2cccc(S(=O)(=O)N(C)C)c2)o1,active: 4.61 µM,–
COc1ccc(Cl)cc1NC(=O)NC(C)C(C)(C)C (centres undefined),–,inactive: 18.8%
Cc1cc(OCC(=O)NC2CC(C)(C)NC(C)(C)C2)c(C)cc1Br,"inconclusive [inhibitor, single point]",–
O=C(NCCc1csc(-c2ccccc2)n1)c1ccco1,active: 18.4 µM,–
COc1ccc(Nc2cc(C(=O)NCc3ccco3)c3ccccc3n2)c(OC)c1,"inconclusive [inhibitor, single point]",–
COc1ccc(-c2nn(C)c(=O)c3ccccc23)cc1NC(=O)Cn1nc(C)c2ccccc2c1=O,"inconclusive [inhibitor, single point]",–
Cc1ccc(C2=CC(=O)C[C@H](c3ccc(Cl)cc3)C2)cc1,active: 23.1 µM,–
COc1ccccc1C(NC(=O)C1CCN(CCOc2ccccc2)CC1)c1ccccn1 (centres undefined),"inconclusive [inhibitor, single point]",–
S=c1nc(-c2cc(Cl)cc(Cl)c2)[nH][nH]1,–,inactive: -16.7%
O=C(Nc1ccccc1)c1ccc(NCC2CCCO2)c(S(=O)(=O)N2CCOCC2)c1 (centres undefined),–,inactive: -18%
CCc1nnc(NC(=O)c2ccc(S(C)(=O)=O)cc2)s1,"inconclusive [inhibitor, single point]",–
O=C(COc1ccccc1Cl)Nc1ccc2nc(SCC(=O)N3CCOCC3)sc2c1,"inconclusive [inhibitor, single point]",–
Cc1ccc(NC(=O)CSc2nccn2-c2ccccc2)cc1,–,inconclusive: -34.1% [inhibitor]
COc1ccc(CNc2ncnc3ccc(-c4ccc(C(=O)N(C)C)cc4)cc23)c(OC)c1,"inconclusive [inhibitor, single point]",–
CSCCC(C(=O)Nc1c(C)cccc1C)n1c(-c2cc(C)cs2)nc2ccccc21 (centres undefined),"inconclusive [inhibitor, single point]",–
CCC(=O)c1ccc(OCC(O)CN2CC(C)OC(C)C2)cc1 (centres undefined),–,inactive: 9.25%
O=C(CN1C(=O)c2cccc([N+](=O)[O-])c2C1=O)N1CCc2ccccc2C1,–,inactive: -15.6%

SMILES,Potency,"activity change, negative = growth inhibition"
O=[N+]([O-])c1ccc(Sc2cc[n+]([O-])c3ccccc23)c([N+](=O)[O-])c1,active: 2.59 µM,–
Cc1ccc(C)c(Nc2nc3nonc3nc2N2CCOCC2)c1,–,inactive: 0.479%
CC(C)(C)c1ccccc1OCCCCN1CCCC1,"inconclusive [inhibitor, single point]",–
Cc1c(C(C)C)c(=O)n(-c2ccc(S(=O)(=O)NC3CCCCC3)cc2)n1C,active: 5.8 µM,–
CN(Cc1ccco1)C(=O)Cn1nc(-c2ccc(Cl)cc2)ccc1=O,"inconclusive [inhibitor, single point]",–
COc1ccccc1C(=O)Nc1ccccc1C(=O)N1C(C)CCCC1C (centres undefined),"inconclusive [inhibitor, partial curve]",–
CCOc1cccc(/C=N/Nc2ccc(S(=O)(=O)N(CC)CC)cn2)c1O,active: 0.164 µM,–
Cc1ccc(NS(=O)(=O)c2ccc(C(=O)NCCN3CCOCC3)cc2)cc1,"inconclusive [inhibitor, partial curve]",–
O=C(O)c1ccc(/C=C2\SC(=Nc3ccccc3)N(c3ccccc3)C2=O)cc1,–,inactive: -17.2%
COc1cc(NC(=O)c2ccccc2Cl)c2ncccc2c1,"inconclusive [inhibitor, single point]",–
CCSc1nc2sc3c(c2c(=O)n1-c1ccc(C)c(Cl)c1)CCN(C(C)=O)C3,"inconclusive [inhibitor, partial curve]",–
CCOc1ccccc1N(CC(=O)NCCc1ccccc1)C(=O)CCC(=O)Nc1ccccn1,–,inactive: 12.9%
N#Cc1c(-c2ccccc2)nc(SCc2nc(N)nc(N3CCCCC3)n2)[nH]c1=O,active: 11.6 µM,–
CCOc1cccc2cc(C(=O)Nc3cc(C)on3)c(=O)oc12,"inconclusive [inhibitor, single point]",–
O=C1COc2ccc(C(=O)CSc3nc4ccccc4c(=O)n3-c3ccc(Cl)c(Cl)c3)cc2N1,active: 23.1 µM,–
COc1ccc(N/N=C(C)/C(=N/O)C(=O)Nc2ccccc2)cc1,"inconclusive [inhibitor, single point]",–
O=C(COc1ccccc1)Nc1ccc(Cl)c(-c2nc3ncccc3o2)c1,–,inactive: -24.8%
COc1ccc(C=C2NC(=O)NC2=O)cc1O,–,inactive: 0.712%
CN(C)CCCSc1nc(-c2ccccc2)nc2c1CCC2,"inconclusive [inhibitor, single point]",–
CCOC(=O)c1cc2[nH]c3ccccc3c2[n+](-c2ccc([N+](=O)[O-])cc2)c1C,"inconclusive [inhibitor, partial curve]",–
Cc1nn(-c2ccccc2)c(N)c1N=Nc1ccc(Cl)cc1,"inconclusive [inhibitor, single point]",–
C#CCNC(=O)C[C@@H]1C[C@@]2(C(=O)OCC)CCCC=C2N(CCC2=CCCCC2)C1=O,active: 13 µM,–
O=C(C[N+]12CN3CN(CN(C3)C1)C2)c1ccc(Cl)cc1,"inconclusive [inhibitor, single point]",–
CC1CC(C)CN(C(=O)C(C)N2CCN(S(=O)(=O)c3ccc(C(F)(F)F)cc3)CC2)C1 (centres undefined),"inconclusive [inhibitor, single point]",–
